In PubChem BioAssay AID463173 (ICCB-Longwood Screening Facility, Harvard Medical School, 2010):
The campaign covered roughly 52,000 compounds. About 1,700 (3.3%) were called active. No stated cut-off is given here; in the data, active means survival mostly below about 52% (no sharp cut-off); inactive means mostly above about 56%. Some of the results follow.

system: Wild type; assay: S. aureus survival, RN4220 and DeltatarO strains – OD600, teichoic acid synthesis inhibitors, primary screen (AID 463173); conditions: S. aureus RN4220 wild type/DeltatarO growth, OD600, 18 h, stronger effect = lower value, screened at 18.75 µg/mL (by protocol)

SMILES	survival
COC(=O)c1cc2occc2n1Cc1cccc(C)c1	active: -1%
COc1ccc(C(=O)N2CCC(c3nc(-c4ccc(S(=O)(=O)N5CCCC5)cc4)no3)CC2)cc1	inactive: 97%
CCCCn1c(SCC(=O)N(C(C)C)C(C)C)nc2c1c(=O)n(C)c(=O)n2C	inactive: 101%
COc1ccc(C(=O)Nc2ccc(-c3nc4ccccc4s3)cc2C)cc1Cl	inactive: 71%
COCCNC(=O)CCN1C(=O)c2cccnc2Oc2ccc(C)cc21	inactive: 70%
O=C(NCCCO)Nc1c[nH]c2ccccc2c1=O	inactive: 114%
COc1ccc(-n2c(=O)c3ccccc3n(Cc3ccccc3C)c2=O)c(OC)c1	inactive: 71%
CC(=O)Nc1nonc1-c1nnc(SCC(=O)Nc2ccc(C)c(Cl)c2)n1-c1ccccc1	inactive: 59%
Cc1ccc(-n2nc(C(=O)Nc3ccc(C)c(F)c3)c3c4ccccc4n(C)c3c2=O)cc1	inactive: 90%
NC(=O)Cn1c(=O)n(CCCCCC(=O)NCc2ccccc2)c(=O)c2sccc21	inactive: 79%
CCOc1ccc(C(=O)c2cnc3ccc(Cl)cc3c2S(=O)(=O)c2ccc(C)cc2)cc1	inactive: 86%
CCN(CC)c1ccc(/C=C(/C#N)C(=O)NC(C)C)o1	inactive: 110%
CCc1ccccc1Nc1nc2cc(Cl)c(Cl)cc2nc1-n1nc(C)cc1C	inactive: 83%
Cc1ccc(-n2ncc3c(=O)n(CC(N)=O)cnc32)cc1	inactive: 95%
Cc1ccc(-n2nc(CO)c(C(=O)NCCCc3ccccc3)n2)cc1	inactive: 98%
CC(=O)Nc1ccc(NS(=O)(=O)c2c(C)nc3sccn3c2=O)cc1	inactive: 84%
COc1cccc(Cn2c(NCc3ccc(C)cc3)nc3c2c(=O)n(C)c(=O)n3C)c1	inactive: 81%
CCOc1ccc(CNC(=O)C2CCCN(S(=O)(=O)N(C)c3ccc(F)cc3)C2)cc1OC (stereo not given)	inactive: 124%
Cc1nn(-c2ccc3nnc(C)n3n2)c(C)c1CCC(=O)Nc1ccc(OC(F)(F)F)cc1	inactive: 71%
COc1ccc(-c2cn3nc(N4CCCC(C(=O)NCc5ccccc5OC)C4)sc3n2)cc1 (stereo not given)	inactive: 68%
CC(=O)c1ccc(NC(=O)c2ccc(-c3nc(COc4ccc(C)cc4)c(C)o3)cc2)cc1	inactive: 66%
Cc1ccc(NC(=O)CS(=O)CC(=O)Nc2ccc(N3CCOCC3)cc2)cc1Cl (stereo not given)	inactive: 87%
Cc1occc1C(=O)NCc1ccccc1	inactive: 101%

SMILES	survival
CCOC(=O)c1cnc2c(ccc3ccccc32)c1Nc1ccc(Cl)cc1	inactive: 30%
CCC(=O)N1CCc2cc(S(=O)(=O)NC(CC(C)C)C(=O)NCc3ccc(F)cc3)ccc21 (stereo not given)	inactive: 77%
COC(=O)c1cc(-c2ccc(OC)c(OC)c2)c2c(=O)[nH]c(=O)n(C)c2n1	inactive: 107%
CN(C)c1ccc(/C=C/C=c2\sc3nc4ccccc4n3c2=O)cc1	inactive: 102%
Cc1cccc(C)c1NC(=O)Cn1c(=O)n(Cc2ccco2)c(=O)c2ccc(C(=O)NC3CCCC3)cc21	inactive: 81%
Cc1ccc(NC(=O)Cn2c(=O)n(Cc3nc(C)no3)c(=O)c3cc4c(cc32)OCO4)c(Cl)c1	inactive: 81%
O=C(Nc1ccc(Cl)cc1)Nc1ccc(N2CCOCC2)cc1	inactive: 84%
CCC(=O)N1c2ccccc2NC2=C(C(=O)CC(C)(C)C2)C1c1ccccn1 (stereo not given)	inactive: 112%
Cc1ccc(S(=O)(=O)c2nc(-c3ccco3)oc2SCC(=O)Nc2ccc(F)cc2)cc1	inactive: 59%
O=C(CCn1c(=O)c2sccc2n(Cc2cccc(F)c2)c1=O)NCc1ccc2c(c1)OCO2	inactive: 89%
CC1Cc2cc(S(=O)(=O)CCC(=O)Nc3ccc(F)c(Cl)c3)ccc2N1C(=O)C1CC1 (stereo not given)	inactive: 53%
Cc1ccc2scc(N3CCN(c4ccc(F)cc4)CC3)c(=O)c2c1	inactive: 58%
CC1CCN(C(=O)c2ccc3c(c2)OCCO3)CC1	inactive: 105%
CCn1nc(CC(=O)Nc2nnc(CC(=O)N3CCCC3)s2)c2ccccc2c1=O	inactive: 95%
COc1ccc(NC(=O)c2sc3nc4n(c(=O)c3c2C)CCC4)cc1Cl	inactive: 117%
O=C1c2[nH]nc(-c3ccc(Br)cc3)c2C(c2cccc(O)c2)N1c1ccc(Cl)cc1 (stereo not given)	active: 1%
COc1ccc(-n2c3c(cc(-c4nc(-c5ccc(Cl)cc5)cs4)c2=O)C(=O)CC(C)(C)C3)cc1	inactive: 148%
O=S(=O)(Cc1ccccc1)N1CCCC(c2nc(-c3cccs3)no2)C1 (stereo not given)	inactive: 112%
COc1ccc2c(c1)sc1ncc(C(=O)NCc3cccc(Cl)c3)c(=O)n12	inactive: 69%
COc1cc(C)ccc1OCCn1c(-c2ccc(Cl)cc2)nc2ccccc2c1=O	inactive: 80%
COc1ccc(C2c3c(n(C)c4ccccc34)C(=O)N2CC(=O)Nc2ccccc2F)cc1 (stereo not given)	inactive: 89%
O=C(NCc1ccc(Cl)cc1)c1cnc2sc(N3CCCC3)nn2c1=O	inactive: 71%
CCOc1ccc(C(c2c(O)cc(C)n(CCOC)c2=O)N2CCC(C)CC2)cc1 (stereo not given)	inactive: 75%

SMILES	survival
COc1ccc(Cl)cc1NC(=O)CN(c1cccc(C)c1C)S(=O)(=O)c1ccccc1	inactive: 86%
O=C(CC1N=C2c3ccccc3N=C(SCc3ccccc3F)N2C1=O)NCc1ccc2c(c1)OCO2 (stereo not given)	inactive: 119%
COc1ccc(CCNC(=O)c2ccc3c(c2)N(Cc2cccc(Cl)c2)C(=O)CS3)cc1OC	inactive: 84%
O=C(Cc1ccc(NC(=O)N2CCSc3ncccc32)cc1)NCCc1ccccc1	inactive: 128%
Cc1ccc(N(C)S(=O)(=O)c2nnc(NC(=O)C3CCCCC3)s2)cc1	inactive: 87%
CCc1ccc(CNC(=O)c2cc(-c3ccc(Cl)s3)nc3ccccc23)cc1	inactive: 95%
NNc1nc2sc3c(c2c(=O)[nH]1)CCCC3	inactive: 107%
CCOc1ccc(NC(=O)Cn2c(=O)oc3cc(S(=O)(=O)N4CCCCCC4)ccc32)cc1	inactive: 83%
Cc1ccc(CCNC(=O)c2ccc(CSCc3ccccc3Cl)o2)cc1	inactive: 72%
CCC(=O)N(CCN1CCOCC1)Cc1cc2cc3c(cc2nc1Cl)OCO3	inactive: 122%
CCOC(=O)N1CCc2c(sc3c2c(=O)n(-c2ccc(CC)cc2)c(=O)n3CC(=O)Nc2ccc(C)cc2)C1	inactive: 84%
CCCCn1c(Cc2ccccc2)nnc1SCC(=O)NC	inactive: 104%
NNC(=O)C(Sc1n[nH]c(=O)[nH]c1=O)c1ccccc1 (stereo not given)	inactive: 112%
O=C(NCCOCCn1c(=O)oc2ccccc21)Nc1ccc(Cl)cc1	inactive: 81%
Cc1ccccc1NC(=O)c1c(NC(=O)Cc2ccccc2)sc2c1CCC2	inactive: 48%
CCOc1ccc(CNC(=O)c2ccc3c(c2)c(C)c(C)n3Cc2ccc(Cl)cc2)cc1	inactive: 76%
CN(C)S(=O)(=O)n1cc(/C=C(\NC(=O)c2ccccc2)C(=O)NCCCn2ccnc2)c2ccccc21	inactive: 115%
O=C(O)CS(=O)(=O)c1nc2ccccc2s1	inactive: 112%
CCNc1ccc(-c2nc(-c3ccco3)no2)cc1[N+](=O)[O-]	inactive: 81%
COc1ccc(N2CC(NC(=O)CCc3ccccc3)CC2=O)cc1OC (stereo not given)	inactive: 71%
Cc1cc(C)c(NC(=O)c2cc(S(=O)(=O)N3CCN(c4ccccc4F)CC3)ccc2F)c(C)c1	inactive: 102%
Cc1ccc2oc(=O)n(CCCOc3ccc(Cl)cc3)c2c1	active: -9%
Cc1cc(OCC(=O)Nc2ccc3c(c2)OCCO3)cc(C)c1Cl	inactive: 113%

SMILES	survival
CCOC(=O)c1ccccc1NC(=O)N1CCC(N2CCN(Cc3ccccc3)C(=O)C2=O)CC1	inactive: 69%
CCOC(=O)c1c(C(=O)CSc2ncc(-c3ccc(F)cc3)n2Cc2ccco2)sc2c1CCCC2	inactive: 116%
Cc1ccc2cc(CN(C(=O)c3cnccn3)C3CCCCC3)c(=O)[nH]c2c1	inactive: 107%
COC(=O)c1scc(-c2ccc(C)cc2)c1S(=O)(=O)N1CCN(c2ccc(OC)cc2)CC1	inactive: 75%
O=C(Cn1c(=O)n(CC2CCCO2)c(=O)c2ccccc21)Nc1cccc(Cl)c1 (stereo not given)	inactive: 82%
COc1cc(OC)c(Nc2nc3ccccc3nc2-n2nc(C)cc2C)cc1Cl	inactive: 80%
Cc1ccc(-c2nc3nc(C)cc(Nc4ccccc4O)n3n2)cc1	inactive: 83%
COc1cccc(NC(=O)c2oc3ccccc3c2C)c1	inactive: 117%
CCS(=O)(=O)N1CCc2cc(C(=O)NCc3ccccc3)ccc21	inactive: 88%
C=CCN1C(=O)C(Cc2ccc(F)cc2)S/C1=N\N=C/c1ccco1 (stereo not given)	inactive: 106%
Cc1cc(C)nc(Sc2ccc3nnnn3n2)n1	inactive: 100%
CC(=O)N1SC(N)=NC1c1ccccc1 (stereo not given)	inactive: 111%
COc1cc(OC)c(NS(=O)(=O)c2cc(-c3cnc(C)o3)ccc2OC)cc1Cl	inactive: 60%
CSc1ncc(C(=O)Nc2ccc(F)cc2F)c(-c2ccccc2)n1	inactive: 73%
CCCC1=Nc2cc(C(=O)NCCc3ccc(OC)cc3OC)ccc2Sc2ccccc21	inactive: 119%
Cc1ccc2oc(-c3cc(NC(=O)c4ccco4)ccc3Cl)nc2c1	active: 1%
Cc1ccc(NC(=O)CN2C(=O)CCn3nc(-c4cccn4C)cc32)cc1	inactive: 77%
CCOc1ccc(OCC)c(NC(=O)CCC(=O)N2CCOc3ccccc32)c1	inactive: 116%
COCCCNc1nc2c(S(=O)(=O)c3ccc(C)c(C)c3)nnn2c2ccc(Cl)cc12	inactive: 114%
Cc1cn(C)c(CC(=O)NCc2ccccc2Cl)c1C(=O)O	inactive: 53%
CCN(CC)CCNC(=O)c1nn(C)c2c1CS(=O)(=O)c1ccccc1-2	inactive: 83%
